According to ChEMBL document CHEMBL4888484, “Replenishing the malaria drug discovery pipeline: Screening and hit evaluation of the MMV Hit Generation Library 1 (HGL1) against asexual blood stage Plasmodium falciparum ,using a nano luciferase reporter read-out” (2022):
In all, about 150,000 compounds went through this assay and about 540 (0.36%) showed an effect of 50% or more. The list shows a part of the results.

These compounds were tested on Plasmodium falciparum (assay: Primary screen in NF54 nanoGlo assay, in single point, at 2uM, 72h; a lower Z score goes with more inhibition). Settings: timepoint 72 hour.
Assay type: functional, Erythrocyte

Structure (SMILES)	% Inhibition [%]	Z score
CC(C)=CCC[C@@]1(C)CCC(=O)N(Cc2ccon2)C1	-6	1.06
CCOc1ccc(OCC)c(NS(=O)(=O)c2ccc(-c3ccno3)cc2OC)c1	-6	1.08
COCC(=O)N[C@@H]1CN(C(=O)c2cc(F)cc(Cl)c2)C[C@H]1c1ccnn1C	2	-0.37
COc1nc(-c2cccc(C(=O)NCCCc3nnc(N)s3)c2)nn1C	-16	2.81
O=C(NCCCc1ccccc1)c1cccc2c1C(=O)N(C1CCCCC1)C2	0	0
Cc1ccc(C(=O)N(CCC#N)CC2CC2)cc1Oc1ccncc1	7	-0.9
CNC(=O)[C@H]1CN(Cc2ccncc2)C[C@@H]1NC(=O)c1ccoc1C	-4	0.44
CCc1cccc(/N=C(\NCc2ccccn2)NC(=O)c2ccc(Cl)cc2)c1	-11	1.01
O=C(CN1CCCN(c2ncnc3cc(-c4ccc(F)cc4)sc23)CC1)N1CCCC1	-1	0.13
CCn1cc(CN2C[C@H](NC(=O)CCC(F)(F)F)[C@@H](C3CC3)C2)cn1	-7	0.96
O=C1c2ccccc2C(=O)N1CCN1CCN(c2ncccn2)CC1	0	-0.03
COc1ccccc1[C@@H]1N(c2ccccc2)OC(=O)N1c1cccc(Cl)c1	-4	0.51
COc1cc(C(=O)N2CCN(Cc3csc(C(C)(C)C)n3)CC2)on1	0	0.05
Cc1cc(C(=O)NCCCn2cn[nH]c2=O)ns1	-4	0.59
COc1ccc(CCCN(C)CCS(C)(=O)=O)cc1	-16	2.5
CCc1nccc(CN2CCC[C@H](c3nnc4ccccn34)C2)n1	3	-0.37
O=c1c2ccccc2nnn1CCNS(=O)(=O)c1ccc(-n2cccn2)cc1	-16	2.78
Cc1nc(-c2nc([C@H]3CCNC3)n(Cc3c(F)cccc3Cl)n2)cs1	-14	1.93
C#CC[C@H](NC(=O)c1ccccc1CC)C(N)=O	-9	0.99
O=C1C[C@@H](c2ccc3c(c2)OCO3)c2cc3c(cc2N1)OCO3	-12	1.13
Cc1cc(O)nc(C(=O)N2CCc3c(C)cc(C)cc3C2)c1	-7	0.59
O=C(Cc1ccc(F)cc1)Nc1nnc(Cc2ccc3c(c2)OCCO3)o1	-3	0.35
O=C(NC[C@]1(O)CCCNC1)c1ccc(-c2ccc(O)c(Cl)c2)cc1	-21	3.21
CN(CC(=O)NCc1cccs1)c1nnc(N2CCCC2=O)s1	-2	0.36
Cn1nccc1C(=O)N(Cc1ccncc1)Cc1ccc2c(c1)OCO2	-5	0.62
COc1ccccc1-c1nnc([C@H]2CCN(CCCc3ccccc3)C2)o1	-11	1.68
CC1CN(c2nnc(NC(=O)c3ccccc3)s2)CC(C)O1 (stereo not drawn)	-11	1.6

Structure (SMILES)	% Inhibition [%]	Z score
CC12CN(S(=O)(=O)c3ccccc3)C3(C(=O)O)CC1CCC23C (stereo not drawn)	6	-0.98
O=c1n(Cc2nccn2CC(F)(F)F)nc2c(Cl)cccn12	-1	0.15
Cc1nc(N2CCC(Nc3ccccn3)CC2)nc2cc(S(C)(=O)=O)ccc12	-7	0.78
CC(C)c1nc(C(=O)Nc2ccccc2CN2CCNC2=O)cs1	30	-0.47
O=C(c1c(O)cc(F)cc1F)N1CCCC[C@@H]1CN1CCOCC1	-13	1.9
COc1ccc(Cc2nnc(C(=O)NCCN3CCN(c4cccc(Cl)c4)CC3)o2)cc1OC	-1	0.12
Cc1ccc([C@H](C)N(C)CC(N)=O)s1	-4	0.65
Cc1nn(C)c(C)c1C(=O)C(=O)N1CCC[C@H](C)C1	-31	3.67
C[C@H](CNCc1nnc2ccccn12)Cc1ccccc1	-12	1.6
C[C@@H](C(=O)NCc1ccc2c(c1)CCCC2)n1cccn1	2	-0.41
CC(C)C(=O)Nc1nnc(-c2cc(Cl)sc2Cl)o1	-6	1.09
CC(C)c1ccc(C#N)c(N(C)CC(C)(C)CO)n1	-21	2.08
O=C(COc1ccc(Cl)cc1Cl)N1CC=C(c2c[nH]c3ccccc23)CC1	-16	1.32
CC(C(=O)NC1CC2CCC1C2)N(c1ccc2c(c1)OCCO2)S(C)(=O)=O (stereo not drawn)	-22	2.01
C[C@H]1CC(=O)NCCN1C(=O)Nc1ccccc1N1CCCC1=O	1	-0.07
N#CCCn1ncc2c(N3CCc4sccc4C3)ncnc21	-8	1.2
Cc1ccc([C@H]2Oc3ccccc3-n3c(-c4ccccc4C)c4c(=O)n(C)c(=O)n(C)c4c32)c(O)c1	-4	0.65
CC(C)c1nnc2n1[C@](C)(C(=O)NCCN1CCN(c3cccc(Cl)c3)CC1)COC2	-12	1.36
COc1ccnc(C(=O)NCc2c(C)n[nH]c2C)c1	-13	1.24
CCn1cc(C(=O)N[C@@H](C)COc2ccccc2OC)cn1	-8	1.1
CNC(=O)[C@@H]1CCCCN1Cc1ccon1	28	-3.14
CC[C@H](C)NC(=O)CCCc1nnc(C(=O)Nc2ccccc2C)s1	-3	0.49
COc1cccc(OC)c1C(=O)Nc1c(-c2ccc(C(F)(F)F)cc2)n[nH]c1C1CC1	-12	2.14
O=C(Nc1nc2ccccc2[nH]1)c1ccncc1	1	-0.23
O=C1C[C@H](COC(=O)c2cc(Cl)cc(C(F)(F)F)c2)CN1	-2	0.34
COC(C)CS(=O)(=O)N(C)C(C)Cc1ccsc1 (stereo not drawn)	0	0.06
Cc1ccc2oc(-c3ccc(NC(=O)CCCc4nc(-c5ccccc5)no4)cc3)nc2c1	-37	3.23
